According to the supplement of paper PMC8728848:
Some of the results follow.

Legend:
Assay in all cases: glycan array binding signal (z-score within array); higher = stronger binding
Settings in all cases: glycan notation: IUPAC condensed, linker removed
[1] = molecular target: Fuc(a1-2)[GalNAc(b1-3)]Gal
Method in brief: (§1)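 Glycan array binding is given as a within-array Z-score, which can be read as non-binding when negative. The arrays, 3228 of them, came from the Consortium for Functional Glycomics database and were retained only where the protein sequence was available. Z-scores were averaged across arrays of the same protein sequence at different concentrations or buffers and across linkers.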

Fuc(a1-3)GlcNAc = molecular target: Fuc(a1-3)GlcNAc
Method in brief: as §1

[2] = molecular target: Fuc(a1-3)[Gal(b1-4)]Glc6S
Method in brief: as §1

[3] = molecular target: Fuc(a1-3)[Gal(b1-4)]GlcNAc
Method in brief: as §1

[4] = molecular target: Fuc(a1-3)[Gal(b1-4)]GlcNAc(b1-2)Man
Method in brief: as §1

[5] = molecular target: Fuc(a1-3)[Gal(b1-4)]GlcNAc(b1-2)Man(a1-3)[Fuc(a1-3)[Gal(b1-4)]GlcNAc(b1-2)Man(a1-6)]Man(b1-4)GlcNAc(b1-4)GlcNAc
Method in brief: as §1

[6] = molecular target: Fuc(a1-3)[Gal(b1-4)]GlcNAc(b1-2)Man(a1-3)[Fuc(a1-3)[Gal(b1-4)]GlcNAc(b1-2)Man(a1-6)]Man(b1-4)GlcNAc(b1-4)[Fuc(a1-6)]GlcNAc
Method in brief: as §1

[7] = molecular target: Fuc(a1-3)[Gal(b1-4)]GlcNAc(b1-3)Gal(b1-3)[Fuc(a1-4)]GlcNAc
Method in brief: as §1

[8] = molecular target: Fuc(a1-3)[Gal(b1-4)]GlcNAc(b1-3)Gal(b1-4)[Fuc(a1-3)]GlcNAc
Method in brief: as §1

[9] = molecular target: Fuc(a1-3)[Gal(b1-4)]GlcNAc(b1-3)Gal(b1-4)[Fuc(a1-3)]GlcNAc(b1-3)Gal(b1-4)[Fuc(a1-3)]GlcNAc
Method in brief: as §1

[10] = molecular target: Fuc(a1-3)[Gal(b1-4)]GlcNAc(b1-3)GalNAc
Method in brief: as §1

[11] = molecular target: Fuc(a1-3)[Gal(b1-4)]GlcNAc(b1-6)GalNAc
Method in brief: as §1

[12] = molecular target: Fuc(a1-3)[Gal(b1-4)]GlcNAc(b1-6)[Gal(b1-3)GlcNAc(b1-3)]Gal(b1-4)Glc
Method in brief: as §1

[13] = molecular target: Fuc(a1-3)[Gal(b1-4)]GlcNAc6S
Method in brief: as §1

[14] = molecular target: Fuc(a1-3)[Gal3S(b1-4)]Glc
Method in brief: as §1

[15] = molecular target: Fuc(a1-3)[Gal3S(b1-4)]GlcNAc
Method in brief: as §1

[16] = molecular target: Fuc(a1-3)[Gal3S(b1-4)]GlcNAc6S
Method in brief: as §1

[17] = molecular target: Fuc(a1-3)[GalNAc(b1-4)]GlcNAc
Method in brief: as §1

[18] = molecular target: Fuc(a1-3)[GalNAc(b1-4)]GlcNAc6S
Method in brief: as §1

Fuc(a1-4)GlcNAc = molecular target: Fuc(a1-4)GlcNAc
Method in brief: as §1

Fuc(b1-3)GlcNAc = molecular target: Fuc(b1-3)GlcNAc
Method in brief: as §1

Gal(a1-2)Gal = molecular target: Gal(a1-2)Gal
Method in brief: as §1

Gal(a1-3)Gal = molecular target: Gal(a1-3)Gal
Method in brief: as §1

Gal(a1-3)Gal(b1-3)GlcNAc = molecular target: Gal(a1-3)Gal(b1-3)GlcNAc
Method in brief: as §1

[19] = molecular target: Gal(a1-3)Gal(b1-3)GlcNAc(b1-2)Man
Method in brief: as §1

[20] = molecular target: Gal(a1-3)Gal(b1-3)GlcNAc(b1-2)Man(a1-3)[Gal(a1-3)Gal(b1-3)GlcNAc(b1-2)Man(a1-6)]Man(b1-4)GlcNAc(b1-4)GlcNAc
Method in brief: as §1

[21] = molecular target: Gal(a1-3)Gal(b1-3)GlcNAc(b1-3)GalNAc
Method in brief: as §1

[22] = molecular target: Gal(a1-3)Gal(b1-3)GlcNAc(b1-6)GalNAc
Method in brief: as §1

[23] = molecular target: Gal(a1-3)Gal(b1-3)[Fuc(a1-4)]GlcNAc(b1-2)Man(a1-3)[Gal(a1-3)Gal(b1-3)[Fuc(a1-4)]GlcNAc(b1-2)Man(a1-6)]Man(b1-4)GlcNAc(b1-4)GlcNAc
Method in brief: as §1

Gal(a1-3)Gal(b1-4)Glc = molecular target: Gal(a1-3)Gal(b1-4)Glc
Method in brief: as §1

B1: CC1G-10077 (Coprinopsis cinerea), A8NDT7 (protein)
chain: MALNEGVYWIRNSRFTNKVLDLDAANVAKGTSILDFNEHGTFNENHNQLWIVERFQSRDTYLIRSVHSNLVLDLSQGLSANGTPILCWTQHGGTNQQWRIEWVKDDNKTPLYRIVSVATGTAISHNEDDSSAYTVAWSVDDGPKQLWSFDPFVTPLLYRLRVKSTSRVLDLAAASADNGTLALAWEQHTAITKRNQLWWLPYRSGAEEYTIQCLETSTVADLSGGNSGNGTPIYGWQSHGGRNQQWKFEPTSDSGDYYHIKNVEGGSVMDAYMNDSQKRVGGWSNNGGDNQKWLLDPLPSPGPGWVLIQNGGTGKFLCSTPSGDIGTADGPETVYDYSVQWRFIQREYTGVYHVVNRATGAYLRQIGTSMPSIGLAEENDDELKDWWMLETYDNSEIGLASIISRWTGNVLDHYGGVSVQALDNNTENSYRSWAIIPARDWLTSFSLVNGQGGLCLAAQYAREETRLSTTANVNDFHAQWVFRKPSGSSGYTIQNKYNNHYVGGTSARWELVVCCNKYFGIRNTSTQKYLAIEDGQVTFQDQDMTDRKQCWELCSGRATDTSGNDYDLIYMDDDLLEVMIPWVGDKQGDLKHYIEKRATKKPPKDKGGWQLPAAGLIKKPKFNDIRQLLQELIEQWEWDVVNEEREQIQTLVSIDEAEARRLLGRRPHPDIVAAYQRSRSSTLFRIDRQGYFNIAGDRYVNIQGQYGDDSYFHIALPVGVRFGREQIRRFLRDSLDRSTSVTITPTTCKPPSGGPDYNRDPDSDGDNSWIKWTIAVVGTSAIKHSEL
In the case of B1, the “glycan array binding signal (z-score)” value [1] is reported as 0.546, the “glycan array binding signal (z-score)” value (Fuc(a1-3)GlcNAc) is reported as -0.513 and the “glycan array binding signal (z-score)” value [2] is reported as -0.451. For the same binder, the “glycan array binding signal (z-score)” value [3] was -0.488, the “glycan array binding signal (z-score)” value [4] was -0.497 and the “glycan array binding signal (z-score)” value [5] was -0.467. The “glycan array binding signal (z-score)” value [6] was -0.364, the “glycan array binding signal (z-score)” value [7] was -0.51 and the “glycan array binding signal (z-score)” value [8] was -0.467. The “glycan array binding signal (z-score)” value [9] was -0.524, the “glycan array binding signal (z-score)” value [10] was -0.414 and the “glycan array binding signal (z-score)” value [11] was -0.37. For the same binder, the “glycan array binding signal (z-score)” value [12] was 0.174, the “glycan array binding signal (z-score)” value [13] was -0.392 and the “glycan array binding signal (z-score)” value [14] was -0.424. For the same binder, the “glycan array binding signal (z-score)” value [15] was -0.473, the “glycan array binding signal (z-score)” value [16] was -0.43 and the “glycan array binding signal (z-score)” value [17] was -0.4. For the same binder, the “glycan array binding signal (z-score)” value [18] was -0.386, the “glycan array binding signal (z-score)” value (Fuc(a1-4)GlcNAc) was -0.457 and the “glycan array binding signal (z-score)” value (Fuc(b1-3)GlcNAc) was -0.448. The “glycan array binding signal (z-score)” value (Gal(a1-2)Gal) was -0.544, the “glycan array binding signal (z-score)” value (Gal(a1-3)Gal) was -0.329 and the “glycan array binding signal (z-score)” value (Gal(a1-3)Gal(b1-3)GlcNAc) was -0.108. The “glycan array binding signal (z-score)” value [19] was 0.453, the “glycan array binding signal (z-score)” value [20] was -0.139 and the “glycan array binding signal (z-score)” value [21] was -0.252. The “glycan array binding signal (z-score)” value [22] was 1.19, the “glycan array binding signal (z-score)” value [23] was 0.093 and the “glycan array binding signal (z-score)” value (Gal(a1-3)Gal(b1-4)Glc) was -0.336.
